The list shows a part of the results. Many values rest on one well or one pass, so single values are uncertain.
What follows are molecules tested on G361 (assay: cell count relative to DMSO control; melanoma cells; higher = more viable cells). Details: library dose: standard library concentration; 72 h.
Work on COc1cc2c(Oc3ccc4[nH]c(C)cc4c3F)ncnc2cc1OCCCN1CCCC1 [cediranib] + CCN(CC)CCCCNc1ncc2cc(-c3cc(OC)cc(OC)c3)c(NC(=O)NC(C)(C)C)nc2n1 [PD173074] (first compound 2 µM, partner dose 0.5 µM) yielded a cell count of 117%.
With NC(=O)c1ccc(N(C(N)=O)c2c(F)cccc2F)nc1-c1ccc(F)cc1F + CN(C)S(=O)(=O)c1ccc2c(c1)/C(=C/c1cc3c([nH]1)CCCC3)C(=O)N2 [SU6656] (first compound 2 µM, partner dose 2 µM) the cell count was 73.2%.
CCCCCCCCc1ccc(CCC(N)(CO)CO)cc1 [fingolimod] + COCC[n+]1c2c(n(Cc3cnccn3)c1C)C(=O)c1ccccc1C2=O [YM155] (first compound 10 µM, partner dose 0.002 µM) gave a cell count of 1.03%.
Molecule CC(C)(C)c1cnc(CSc2cnc(NC(=O)C3CCNCC3)s2)o1 + COc1ccc2c(c1)CCC1C2CCC2(C)C(NCCCCCCN3C(=O)C=CC3=O)CCC12 [U73122] (first compound 0.05 µM, partner dose 2 µM) has a cell count of 97.8%.
Work on CC(C)(C)c1cnc(CSc2cnc(NC(=O)C3CCNCC3)s2)o1 + COc1ccc(COc2ccc(Cc3cnc(N)nc3N)cc2OC)cc1 [GW2580] (first compound 0.05 µM, partner dose 5 µM) yielded a cell count of 128%.

Source: the supplement of paper PMC4604168 (melanoma cell lines)
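Note: cells treated in 1,536-well plates, then fixed and DAPI-stained, with nuclei counted from automated high-throughput microscope images.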
